Experimental data from PMC12528901.
Changes are numbered by the printed parent chain. These are yes or no findings as the source states them, for the method shown. Binding seen in cells or lysates may run through a third protein. Some entries that bind do so weakly or less than the wild type. For some assays here: Where a sequence is shown, tags or fusion partners need not be part of it.

Chains of the proteins cited; added tags and fusions are not shown. Lines headed by an entry give the natural chain unless they say otherwise; changes in a name come on top. A line that says so, or that is headed by a name, gives the form on record, which may keep a tag or linker.
UniProt Q8VDZ4: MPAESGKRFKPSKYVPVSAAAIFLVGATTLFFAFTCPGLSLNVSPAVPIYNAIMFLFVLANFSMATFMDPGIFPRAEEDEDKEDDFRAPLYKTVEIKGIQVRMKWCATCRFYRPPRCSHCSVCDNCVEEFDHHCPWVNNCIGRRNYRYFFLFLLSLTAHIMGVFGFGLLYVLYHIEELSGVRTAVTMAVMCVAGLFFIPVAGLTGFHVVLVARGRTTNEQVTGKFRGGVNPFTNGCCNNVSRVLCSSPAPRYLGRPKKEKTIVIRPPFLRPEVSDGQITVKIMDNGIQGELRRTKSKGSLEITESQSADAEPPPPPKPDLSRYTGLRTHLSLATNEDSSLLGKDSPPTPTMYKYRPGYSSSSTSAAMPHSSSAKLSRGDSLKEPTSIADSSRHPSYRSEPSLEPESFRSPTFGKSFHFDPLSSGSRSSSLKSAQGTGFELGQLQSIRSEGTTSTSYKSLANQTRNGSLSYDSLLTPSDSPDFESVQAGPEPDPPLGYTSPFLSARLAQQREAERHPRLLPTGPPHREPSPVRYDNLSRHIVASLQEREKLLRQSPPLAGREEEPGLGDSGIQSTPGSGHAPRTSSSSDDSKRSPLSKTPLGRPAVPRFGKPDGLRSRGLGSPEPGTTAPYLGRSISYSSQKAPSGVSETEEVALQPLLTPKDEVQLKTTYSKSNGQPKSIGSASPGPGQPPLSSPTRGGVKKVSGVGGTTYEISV
HA-Zdhhc5^ANYR (mouse Zdhhc5 Arg144Ala) (Q8VDZ4, form named): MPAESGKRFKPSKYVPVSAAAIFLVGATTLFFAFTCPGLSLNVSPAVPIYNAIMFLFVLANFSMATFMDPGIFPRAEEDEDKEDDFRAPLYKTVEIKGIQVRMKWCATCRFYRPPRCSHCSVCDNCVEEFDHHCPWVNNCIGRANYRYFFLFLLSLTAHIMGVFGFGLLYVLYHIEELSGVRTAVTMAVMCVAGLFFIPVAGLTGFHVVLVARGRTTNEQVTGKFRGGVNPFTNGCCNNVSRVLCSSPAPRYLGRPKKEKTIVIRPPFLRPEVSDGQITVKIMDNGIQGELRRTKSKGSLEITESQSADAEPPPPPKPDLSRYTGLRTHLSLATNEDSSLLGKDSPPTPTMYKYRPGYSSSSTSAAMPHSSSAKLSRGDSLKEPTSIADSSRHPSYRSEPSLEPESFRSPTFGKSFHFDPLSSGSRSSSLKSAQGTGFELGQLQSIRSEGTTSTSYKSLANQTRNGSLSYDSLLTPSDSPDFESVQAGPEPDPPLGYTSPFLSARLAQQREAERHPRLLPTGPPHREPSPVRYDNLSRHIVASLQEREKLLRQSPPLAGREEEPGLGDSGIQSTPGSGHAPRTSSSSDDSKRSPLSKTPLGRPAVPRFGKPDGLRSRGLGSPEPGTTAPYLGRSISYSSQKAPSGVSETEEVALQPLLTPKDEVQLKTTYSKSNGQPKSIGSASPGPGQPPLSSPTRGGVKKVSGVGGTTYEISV
HA-Zdhhc5^RNAR (mouse Zdhhc5 Tyr146Ala) (Q8VDZ4, form named): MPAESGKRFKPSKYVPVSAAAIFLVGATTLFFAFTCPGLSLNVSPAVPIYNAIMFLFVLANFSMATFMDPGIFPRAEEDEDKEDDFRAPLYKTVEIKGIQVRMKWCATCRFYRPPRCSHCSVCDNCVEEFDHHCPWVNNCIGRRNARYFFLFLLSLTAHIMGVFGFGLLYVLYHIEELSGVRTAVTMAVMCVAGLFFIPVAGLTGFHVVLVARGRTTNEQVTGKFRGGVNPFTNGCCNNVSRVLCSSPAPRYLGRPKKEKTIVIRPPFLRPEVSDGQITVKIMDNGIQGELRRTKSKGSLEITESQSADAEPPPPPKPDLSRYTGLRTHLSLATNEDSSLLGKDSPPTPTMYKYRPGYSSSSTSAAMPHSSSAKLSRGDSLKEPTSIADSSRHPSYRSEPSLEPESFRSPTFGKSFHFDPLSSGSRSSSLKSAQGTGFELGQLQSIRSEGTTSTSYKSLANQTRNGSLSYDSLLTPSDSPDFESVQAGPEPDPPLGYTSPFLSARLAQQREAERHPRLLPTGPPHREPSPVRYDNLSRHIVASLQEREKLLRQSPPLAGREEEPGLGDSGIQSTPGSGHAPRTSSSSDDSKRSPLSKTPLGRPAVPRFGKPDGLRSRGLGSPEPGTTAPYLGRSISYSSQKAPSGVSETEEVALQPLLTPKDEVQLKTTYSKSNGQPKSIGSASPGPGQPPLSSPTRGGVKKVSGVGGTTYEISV
HA-Zdhhc5^RNAA (mouse Zdhhc5 double mutant) (Q8VDZ4, form named): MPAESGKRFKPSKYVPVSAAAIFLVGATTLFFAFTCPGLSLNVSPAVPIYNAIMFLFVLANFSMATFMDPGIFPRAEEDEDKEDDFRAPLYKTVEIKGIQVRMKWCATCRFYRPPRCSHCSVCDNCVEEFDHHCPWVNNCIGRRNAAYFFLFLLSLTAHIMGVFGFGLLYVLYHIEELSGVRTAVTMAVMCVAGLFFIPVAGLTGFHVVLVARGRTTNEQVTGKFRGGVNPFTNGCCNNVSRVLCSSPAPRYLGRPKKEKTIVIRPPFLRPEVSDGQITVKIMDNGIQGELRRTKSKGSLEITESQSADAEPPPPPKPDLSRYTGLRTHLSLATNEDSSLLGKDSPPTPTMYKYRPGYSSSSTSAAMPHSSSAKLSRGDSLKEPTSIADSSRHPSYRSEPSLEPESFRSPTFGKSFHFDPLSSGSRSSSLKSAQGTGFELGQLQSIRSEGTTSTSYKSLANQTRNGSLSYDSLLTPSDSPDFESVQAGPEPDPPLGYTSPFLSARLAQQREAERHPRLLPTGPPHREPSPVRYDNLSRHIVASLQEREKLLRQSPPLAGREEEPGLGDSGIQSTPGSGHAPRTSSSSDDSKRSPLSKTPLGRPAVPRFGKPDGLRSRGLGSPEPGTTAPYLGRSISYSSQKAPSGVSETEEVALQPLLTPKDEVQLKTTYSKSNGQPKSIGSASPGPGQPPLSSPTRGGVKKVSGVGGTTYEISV
HA-Zdhhc5^RNYA (mouse Zdhhc5 Arg147Ala) (Q8VDZ4, form named): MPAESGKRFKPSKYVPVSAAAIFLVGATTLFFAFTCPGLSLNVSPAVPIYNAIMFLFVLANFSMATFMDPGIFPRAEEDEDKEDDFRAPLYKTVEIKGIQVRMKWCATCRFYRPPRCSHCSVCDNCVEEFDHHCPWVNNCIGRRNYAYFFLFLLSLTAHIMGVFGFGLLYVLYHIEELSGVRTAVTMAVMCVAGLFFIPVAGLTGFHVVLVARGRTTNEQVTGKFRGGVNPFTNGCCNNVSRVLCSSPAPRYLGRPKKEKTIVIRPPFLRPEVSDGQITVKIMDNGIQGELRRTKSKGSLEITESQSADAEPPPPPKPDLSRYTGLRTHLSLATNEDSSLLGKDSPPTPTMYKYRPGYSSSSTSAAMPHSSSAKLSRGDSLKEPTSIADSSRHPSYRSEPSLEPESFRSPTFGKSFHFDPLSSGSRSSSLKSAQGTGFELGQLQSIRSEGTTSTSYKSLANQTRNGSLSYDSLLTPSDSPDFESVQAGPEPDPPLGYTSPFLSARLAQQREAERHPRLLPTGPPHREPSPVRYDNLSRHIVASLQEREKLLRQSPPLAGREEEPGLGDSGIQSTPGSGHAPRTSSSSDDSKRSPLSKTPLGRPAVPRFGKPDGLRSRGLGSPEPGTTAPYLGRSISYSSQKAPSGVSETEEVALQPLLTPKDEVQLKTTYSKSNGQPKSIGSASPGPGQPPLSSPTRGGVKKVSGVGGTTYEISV
HA-Zdhhc5^ANAA (mouse Zdhhc5 triple alanine mutant) (Q8VDZ4, form named): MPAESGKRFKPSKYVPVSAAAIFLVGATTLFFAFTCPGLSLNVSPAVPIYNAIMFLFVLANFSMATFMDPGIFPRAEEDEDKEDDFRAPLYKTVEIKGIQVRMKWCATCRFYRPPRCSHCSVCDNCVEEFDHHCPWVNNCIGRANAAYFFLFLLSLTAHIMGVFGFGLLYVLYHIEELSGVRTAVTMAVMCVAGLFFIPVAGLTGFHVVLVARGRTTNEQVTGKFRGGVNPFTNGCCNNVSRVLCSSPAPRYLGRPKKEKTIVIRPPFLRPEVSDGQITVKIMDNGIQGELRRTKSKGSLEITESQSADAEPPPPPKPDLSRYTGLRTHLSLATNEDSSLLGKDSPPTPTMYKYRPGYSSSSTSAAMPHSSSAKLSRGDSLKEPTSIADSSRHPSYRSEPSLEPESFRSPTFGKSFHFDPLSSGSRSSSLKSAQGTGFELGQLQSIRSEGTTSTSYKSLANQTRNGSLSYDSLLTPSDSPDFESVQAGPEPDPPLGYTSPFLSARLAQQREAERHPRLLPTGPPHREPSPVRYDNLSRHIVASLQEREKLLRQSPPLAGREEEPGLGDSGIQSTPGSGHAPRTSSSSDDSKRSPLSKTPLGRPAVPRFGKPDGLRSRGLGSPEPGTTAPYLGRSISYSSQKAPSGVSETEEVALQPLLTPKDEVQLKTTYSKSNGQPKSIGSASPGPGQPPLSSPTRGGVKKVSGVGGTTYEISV
HA-Zdhhc5^ANYA (mouse Zdhhc5 double mutant) (Q8VDZ4, form named): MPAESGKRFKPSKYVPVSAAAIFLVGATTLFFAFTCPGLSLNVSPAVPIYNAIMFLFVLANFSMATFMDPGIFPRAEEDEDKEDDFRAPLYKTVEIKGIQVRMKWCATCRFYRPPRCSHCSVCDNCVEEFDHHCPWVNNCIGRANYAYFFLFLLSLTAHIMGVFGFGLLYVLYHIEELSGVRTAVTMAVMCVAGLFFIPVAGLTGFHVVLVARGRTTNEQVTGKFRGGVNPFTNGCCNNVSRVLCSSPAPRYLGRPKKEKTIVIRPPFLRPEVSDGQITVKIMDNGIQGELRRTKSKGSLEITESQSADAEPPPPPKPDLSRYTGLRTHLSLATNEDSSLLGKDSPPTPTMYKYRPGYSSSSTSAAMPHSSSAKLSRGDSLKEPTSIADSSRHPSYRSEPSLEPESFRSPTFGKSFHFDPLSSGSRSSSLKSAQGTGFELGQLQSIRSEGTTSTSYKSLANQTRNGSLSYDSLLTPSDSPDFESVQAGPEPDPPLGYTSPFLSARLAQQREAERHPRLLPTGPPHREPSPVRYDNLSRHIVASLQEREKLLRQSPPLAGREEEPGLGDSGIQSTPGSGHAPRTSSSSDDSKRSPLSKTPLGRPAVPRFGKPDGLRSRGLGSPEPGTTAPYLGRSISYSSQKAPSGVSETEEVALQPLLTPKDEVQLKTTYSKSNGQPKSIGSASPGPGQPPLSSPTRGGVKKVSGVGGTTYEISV
UniProt Q7Z5G4: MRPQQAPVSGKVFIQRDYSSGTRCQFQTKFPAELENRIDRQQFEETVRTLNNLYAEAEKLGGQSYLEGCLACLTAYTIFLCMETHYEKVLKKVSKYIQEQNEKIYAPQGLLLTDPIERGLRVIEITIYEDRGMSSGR
UniProt Q9ULC8: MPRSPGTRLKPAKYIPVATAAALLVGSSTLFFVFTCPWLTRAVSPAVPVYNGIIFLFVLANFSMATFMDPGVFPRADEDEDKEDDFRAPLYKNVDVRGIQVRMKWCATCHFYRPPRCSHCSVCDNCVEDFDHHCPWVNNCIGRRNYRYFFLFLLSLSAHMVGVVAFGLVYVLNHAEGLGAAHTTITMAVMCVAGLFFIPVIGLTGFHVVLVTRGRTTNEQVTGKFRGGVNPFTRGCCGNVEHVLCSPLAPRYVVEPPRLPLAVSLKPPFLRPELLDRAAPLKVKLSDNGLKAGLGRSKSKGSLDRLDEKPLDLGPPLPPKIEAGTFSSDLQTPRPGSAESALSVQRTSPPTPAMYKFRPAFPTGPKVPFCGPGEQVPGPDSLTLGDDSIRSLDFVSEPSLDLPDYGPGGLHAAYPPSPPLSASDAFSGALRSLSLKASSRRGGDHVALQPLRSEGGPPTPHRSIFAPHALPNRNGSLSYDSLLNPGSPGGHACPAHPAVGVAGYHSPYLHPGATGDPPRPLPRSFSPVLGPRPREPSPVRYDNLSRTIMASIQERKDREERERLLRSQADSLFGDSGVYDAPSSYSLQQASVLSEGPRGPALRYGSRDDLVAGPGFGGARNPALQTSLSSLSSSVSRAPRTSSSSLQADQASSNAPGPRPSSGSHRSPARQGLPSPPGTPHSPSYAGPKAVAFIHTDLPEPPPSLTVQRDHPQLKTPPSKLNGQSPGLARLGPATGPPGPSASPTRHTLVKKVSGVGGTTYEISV
UniProt Q9Y397: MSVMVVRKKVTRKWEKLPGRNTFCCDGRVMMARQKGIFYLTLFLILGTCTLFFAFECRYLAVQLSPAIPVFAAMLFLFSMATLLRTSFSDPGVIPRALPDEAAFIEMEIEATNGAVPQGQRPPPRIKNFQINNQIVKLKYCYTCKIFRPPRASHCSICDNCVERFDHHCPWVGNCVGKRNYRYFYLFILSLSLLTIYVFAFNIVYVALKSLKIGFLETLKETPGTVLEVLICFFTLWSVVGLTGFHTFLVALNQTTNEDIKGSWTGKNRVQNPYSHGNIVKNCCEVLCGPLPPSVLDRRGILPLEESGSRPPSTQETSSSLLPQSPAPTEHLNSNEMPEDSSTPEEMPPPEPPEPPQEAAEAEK

Assays:
[1] = molecular target: T1, GOLGA7B^2CS (human GOLGA7B Cys78Ser Cys81Ser), 3xFLAG (human) (UniProt Q2TAP0); assay: co-IP; FLAG-tagged human GOLGA7 or GOLGA7B constructs transfected into 293T GOLGA7 KO and control cells; lysis with 1% DDM; anti-FLAG M2 magnetic beads overnight at 4 °C; blots for endogenous ZDHHC5, ZDHHC8, ZDHHC9
T1 sequence: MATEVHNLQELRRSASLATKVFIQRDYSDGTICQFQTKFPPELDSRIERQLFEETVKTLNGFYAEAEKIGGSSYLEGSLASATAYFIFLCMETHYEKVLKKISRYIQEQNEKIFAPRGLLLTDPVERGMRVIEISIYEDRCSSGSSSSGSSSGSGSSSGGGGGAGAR

[2] = molecular target: T2, 3xFLAG-GOLGA7B (human), wild type (human) (UniProt Q2TAP0); assay: as above
T2 sequence: T1 sequence with S78C, S81C

[3] = molecular target: HA-Zdhhc5^ANYR (mouse Zdhhc5 Arg144Ala) (mouse) (UniProt Q8VDZ4); assay: co-IP; HA-tagged mouse Zdhhc proteins transfected into 293T ZDHHC5 KO and control cells; lysis in 50 mM Tris-HCl pH 7.4, 150 mM NaCl, 2 mM EDTA, 1% DDM; anti-HA magnetic beads overnight at 4 °C; washes in TBS with 0.5% DDM; blots for endogenous GOLGA7 or ZDHHC9
[4] = molecular target: HA-Zdhhc5^RNAR (mouse Zdhhc5 Tyr146Ala) (mouse) (UniProt Q8VDZ4); assay: as above
[5] = molecular target: HA-tagged mouse Zdhhc5, wild type (mouse) (UniProt Q8VDZ4); assay: as above
[6] = molecular target: HA-Zdhhc5^RNAA (mouse Zdhhc5 double mutant) (mouse) (UniProt Q8VDZ4); assay: as above
[7] = molecular target: HA-Zdhhc5^RNYA (mouse Zdhhc5 Arg147Ala) (mouse) (UniProt Q8VDZ4); assay: as above
[8] = molecular target: HA-Zdhhc5^ANAA (mouse Zdhhc5 triple alanine mutant) (mouse) (UniProt Q8VDZ4); assay: as above
[9] = molecular target: HA-Zdhhc5^ANYA (mouse Zdhhc5 double mutant) (mouse) (UniProt Q8VDZ4); assay: as above
[10] = molecular target: 3xFLAG-GOLGA7 (human), wild type (human) (UniProt Q7Z5G4); assay: co-IP; FLAG-tagged human GOLGA7 or GOLGA7B constructs transfected into 293T GOLGA7 KO and control cells; lysis with 1% DDM; anti-FLAG M2 magnetic beads overnight at 4 °C; blots for endogenous ZDHHC5, ZDHHC8, ZDHHC9

binding [1] | binding [2] | binding [3] | binding [4] | binding [5] | binding [6] | binding [7] | binding [8] | binding [9] | binding [10] | Substance
no binding | binds | – | – | – | – | – | – | – | – | endogenous human ZDHHC8 (from UniProt Q9ULC8 1-765) (enzyme)
– | no binding | no binding | no binding | no binding | no binding | no binding | no binding | no binding | binds | endogenous human ZDHHC9 (from UniProt Q9Y397 1-364) (enzyme)
